42 sequences from publication PMC7819943, “Rice protein-binding microarrays: a tool to detect cis-acting elements near promoter regions in rice” can be followed below.

This is one part of the list.

The assay addresses T1, OsWOX13 (Oryza sativa, UniProt Q5QMM3 1-267).
T1 sequence: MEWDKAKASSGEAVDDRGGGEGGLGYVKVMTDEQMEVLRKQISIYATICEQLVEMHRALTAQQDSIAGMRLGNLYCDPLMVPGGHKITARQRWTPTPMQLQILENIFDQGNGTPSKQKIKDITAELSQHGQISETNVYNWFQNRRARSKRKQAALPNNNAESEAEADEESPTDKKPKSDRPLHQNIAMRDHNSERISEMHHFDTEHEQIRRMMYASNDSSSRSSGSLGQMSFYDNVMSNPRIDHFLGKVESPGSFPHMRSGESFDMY
In words: protein-binding microarray (RPBM); PBS, 2% BSA, 51.3 ng/ul salmon testes DNA, 50 uM zinc acetate, 200 nM TF, 25 C, 1 h; high values mean tight binding. The conditions noted are these: protein: recombinant; tags: N-terminal polyhistidine and DsRed monomer fusion (pET32a); label: CyDye5-dUTP incorporated in the synthesized complementary strand; 3' TTTTT single-stranded linker to array surface; dsDNA, one strand shown. Put shortly:
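Transcription factors were made in E. coli BL21-CodonPlus as N-terminal fusions to a polyhistidine tag and DsRed, then purified on Ni–NTA. After primer extension with Cy5-dUTP and blocking with 2% BSA, a custom Agilent array was exposed for 1 h at 25 °C to 200 nM protein in PBS, 2% BSA, salmon testes DNA and 50 µM zinc acetate. Washed arrays were scanned on an Axon 4000B, and the binding signal is per-feature fluorescence intensity in arbitrary units.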
For the sequence “CCGGCAATCCAATCATTTCCCGTACCGGAAGCCGCAGCCTCGGAGTCACCTAGTGCAG”, the binding signal is 10400 fluorescence intensity (a.u.). Take “TTAACTGATTGATGCTCAAGTGGATTGATCGATTTTGTTGCGGAGTCACCTAGTGCAG”: the binding signal is 65500 fluorescence intensity (a.u.). In the case of “AGTCAGTTTATTGGCTTATATGATTTATAAGTCAGTGGATCGGAGTCACCTAGTGCAG”, the binding signal was 8380 fluorescence intensity (a.u.). Turning to “TCAACTGATCCAATTAATTCATCGATCGTCCCTGAATTCACGGAGTCACCTAGTGCAG”, the binding signal was 10100 fluorescence intensity (a.u.). Take “AATTAATTAAAACAAAACGGAGACGACGAGTACTAGTGTACGGAGTCACCTAGTGCAG”: the binding signal is 16700 fluorescence intensity (a.u.). “ACCCTCCATTCAGTGTATTTTAATTAACTAACACCATTGCCGGAGTCACCTAGTGCAG”: the binding signal was 4560 fluorescence intensity (a.u.). As for “AGCACTGTAATAGAAATTCCAATCAGATGGCTCATGAACTCGGAGTCACCTAGTGCAG”, the figure is 5800 fluorescence intensity (a.u.); as for “ATAGATTGATTTGATAATTTCCTTGAGAGTAACACATGGGCGGAGTCACCTAGTGCAG”, 65500 fluorescence intensity (a.u.); as for “AGCTGACTGCCAATTTCAAGAACATACCGGTCACTCTTGCCGGAGTCACCTAGTGCAG”, 20700 fluorescence intensity (a.u.). “ATCCTAAATTGAAACTGAATCTACAGATGCGCATGGGTCTCGGAGTCACCTAGTGCAG”: the binding signal was 33100 fluorescence intensity (a.u.). For the sequence “AGATGACGACTTTATTGATTCTCTCTGTGTTTACAAAGTGCGGAGTCACCTAGTGCAG”, the binding signal is 7540 fluorescence intensity (a.u.). For the sequence “ATTACGACTTGGGACGTCAATTAAACTTGACGTGAAGTTGCGGAGTCACCTAGTGCAG”, the binding signal is 3540 fluorescence intensity (a.u.). As to “GACTTCATAATTAACAGTGCACTGGGTCCATCCAATTGAGCGGAGTCACCTAGTGCAG”, the binding signal is 9720 fluorescence intensity (a.u.). For “ATGATATTTATATTAAATTAGATAAATATATGTGGTGCATCGGAGTCACCTAGTGCAG”, the binding signal is 13300 fluorescence intensity (a.u.). The same measure for “GGGGATAATTTTGTAGCTCGATGACAAGTTGATTTGGTGTCGGAGTCACCTAGTGCAG”: 19200 fluorescence intensity (a.u.); for “CTTCAACATATGCTAATTGCCTCGCCTATATATGCTACTCCGGAGTCACCTAGTGCAG”: 3910 fluorescence intensity (a.u.). As for “CGGTAGTGATTGATTCGGATGATTTCACCAGTAGGATTGGCGGAGTCACCTAGTGCAG”, the figure is 65300 fluorescence intensity (a.u.); as for “GCTGATTATTGTTATAAGTCAACAATTCTGTAACTTCTATCGGAGTCACCTAGTGCAG”, 26200 fluorescence intensity (a.u.). As for “CCGGGTGATTACTTCTTCGAAAGCTATTTTCAGAGCCTATCGGAGTCACCTAGTGCAG”, the binding signal was 13600 fluorescence intensity (a.u.).

Turning to “TAAGATAGATGAATTGGGCACTTGAGGGTAAGAACACAGCCGGAGTCACCTAGTGCAG”, the binding signal is 6770 fluorescence intensity (a.u.).

With “TACGTTAATTTCTTGCTTGCGTGCCTACAAATTAAAGTTCCGGAGTCACCTAGTGCAG”, the binding signal is 8190 fluorescence intensity (a.u.). The same measure for “GTGGTATTGACAAGTATTGGTAGTAGACCAAACATTGCCACGGAGTCACCTAGTGCAG”: 3800 fluorescence intensity (a.u.); for “GACAAAACTGGAAAATTAAAGCCAATAATCTCAACTCTCACGGAGTCACCTAGTGCAG”: 3250 fluorescence intensity (a.u.); for “TATGATTATAGTTGTCCTAAAATATAAGCGATTTTGGTTGCGGAGTCACCTAGTGCAG”: 20200 fluorescence intensity (a.u.). As for “TTATTTAAATTTCTCCCTATTTTACCCTCAATTACCCTTCCGGAGTCACCTAGTGCAG”, the figure is 3250 fluorescence intensity (a.u.); as for “CATAATTAATATCTAGTCCCAACTATCATACATATATGTACGGAGTCACCTAGTGCAG”, 31800 fluorescence intensity (a.u.); as for “TTTACAAATTGATGTAGAAGTGAATCCAATTGCTGGCAAGCGGAGTCACCTAGTGCAG”, 30600 fluorescence intensity (a.u.).

As to “TGAATTTTCGACCTTAAATTAGGAGTTAATTTTGAGGTTTCGGAGTCACCTAGTGCAG”, the binding signal was 7030 fluorescence intensity (a.u.). As for “AATGAATGACTGTCACAGTTCGATGATGTGACTATATATGCGGAGTCACCTAGTGCAG”, the figure is 16600 fluorescence intensity (a.u.); as for “AGTTTTCCTAATTATAATAGATAGATATATAGACAGATAGCGGAGTCACCTAGTGCAG”, 18200 fluorescence intensity (a.u.); as for “TAAGATTGATGGTCAAACACGGATTCCCACGGTTGTACTTCGGAGTCACCTAGTGCAG”, 48800 fluorescence intensity (a.u.). Turning to “TTTCATATCATCTGATTATTAAGCAGTTTTGATATTTCACCGGAGTCACCTAGTGCAG”, the binding signal was 3320 fluorescence intensity (a.u.).

With “ACTTGTATAATAATTAGCATATATATGGTTAGTTTGATTACGGAGTCACCTAGTGCAG”, the binding signal is 5750 fluorescence intensity (a.u.). Consider “CAAACTAAATAGACACCTTGCCTAATCTAAGCTATGACATCGGAGTCACCTAGTGCAG”, for which the binding signal was 10500 fluorescence intensity (a.u.). Regarding “GCAATAGACTAGATTAATAGTAAACCACCTCAATAGTATGCGGAGTCACCTAGTGCAG”, the binding signal is 7580 fluorescence intensity (a.u.). As to “CAAACTGTTAATTATGGCAATAATAGCCATCAAACGCGTACGGAGTCACCTAGTGCAG”, the binding signal is 25600 fluorescence intensity (a.u.). On to “ATTTGATTGTCTTATGCTTGTTCTTTGATGATAAGCCATACGGAGTCACCTAGTGCAG”, for which the binding signal is 17200 fluorescence intensity (a.u.). As for “TAATTTCAAATTGAATGAATTTGGGCATGTAATTTATTGCCGGAGTCACCTAGTGCAG”, the figure is 14500 fluorescence intensity (a.u.). As to “TTTACATATTGATTATCTTATTAGTGCATTAGTTGTAATACGGAGTCACCTAGTGCAG”, the binding signal is 27900 fluorescence intensity (a.u.). In the case of “GCTAAATTCCTATCAAATTCAAGTTTAACACATTACTGCGCGGAGTCACCTAGTGCAG”, the binding signal is 13100 fluorescence intensity (a.u.). “TTCTAATTATGTATGTCATGTTTATTGTCTTAATATTTTGCGGAGTCACCTAGTGCAG”: the binding signal was 26400 fluorescence intensity (a.u.). The same measure for “AACTTGATTAAGGTTAGTTTGACCTTGTTATTCCAGAGTACGGAGTCACCTAGTGCAG”: 13300 fluorescence intensity (a.u.).
